Reference: PubChem BioAssay AID504466 (National Center for Advancing Translational Sciences (NCATS), 2011)
In all, about 330,000 compounds went through this assay and about 4,200 (1.3%) were called active. Inconclusive results, whose numbers are uncertain, are shown with a selection of clear calls. Calls follow the shape of the dose curve; as a rule, active = well fitted activation curve with a large enough effect; inconclusive = small, poorly fitted or top-dose-only effect; inactive = no such curve, though single readings can be large or run the other way. Potencies of inconclusive entries are doubtful fits and often do not repeat.

experiment: qHTS screen for small molecules that induce genotoxicity in human embryonic kidney (HEK293T) cells expressing luciferase-tagged ELG1; conditions: HEK293T ELG1-luciferase reporter, luminescence, 16 h; series mostly up to 46 µM; activity change, positive = activation: at the top concentration; also: nearly all actives have a fitted effect of over 60% in size; as to activity change, positive = activation: % of control where 0% means no effect
Method in brief: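 Quantitative HTS format in 1536-well plates. HEK293T ELG1-luciferase reporter cells receive test compound and are incubated 16 hr at 37 °C, 5% CO2; ONE-Glo added, 30 min room temperature, then luminescence read.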
Potency is read from the fitted curve at half-maximal effect; tags tell the direction and shape of the fitted curve.

| SMILES | Potency | activity change, positive = activation |
| --- | --- | --- |
| Cc1occc1C(=O)Nc1ccccc1C(=O)O | inconclusive: 20 µM [activator, partial curve, poor fit] |  |
| C=C1SC(=Nc2ccccc2Cl)N(C(=O)c2sc3ccccc3c2Cl)C12CCCCC2 |  | inactive: 5.91% |
| O=C(NCCc1ccccc1)NC1CCCCC1 | inconclusive: 2.31 µM [activator, full curve, poor fit] |  |
| CC(C)CCNC(=O)CCSCCC(=O)NCCC(C)C |  | inactive: -2.82% |
| N#Cc1ccc(NC(=O)CCc2nc3ccccc3s2)cc1 |  | inactive: -3.46% |
| C#CCSc1nnc(-c2ccc([N+](=O)[O-])cc2)o1 |  | inactive: 16.5% |
| C=CCn1c(SCc2c(Cl)cccc2Cl)nnc1-c1cccnc1 |  | inactive: -6.75% |
| CN(C)c1cccc(C(=O)n2cc(C(=O)c3cc(F)ccc3O)cn2)c1 | inconclusive: 20.6 µM [activator, partial curve, poor fit] |  |
| CCCCC(=O)Nc1ccc(NC(=O)c2ccco2)cn1 | inconclusive: 25.9 µM [activator, partial curve, poor fit] |  |
| CC1CCC(NC(=O)CNC(=O)c2ccc3ccccc3c2)CC1 (configuration not stated) | inconclusive: 20.6 µM [activator, partial curve, poor fit] |  |
| Cc1ccc(S(=O)(=O)N2C[C@@H]3[C@H]4CC[C@H](C4)[C@@H]3[C@@H](C)[C@@H]2c2ccn([Si](C(C)C)(C(C)C)C(C)C)c2)cc1 |  | inactive: 9.9% |
| CS(=O)(=O)N1CCN(c2ccc(NC(=O)c3ccc([N+](=O)[O-])o3)cc2)CC1 | inconclusive: 16.4 µM [activator, partial curve, poor fit] |  |
| c1ccc(Oc2cccc(OCCn3cncn3)c2)cc1 |  | inactive: 10.5% |
| COC(=O)CSc1nc2ccc(C)cc2cc1C#N | inconclusive: 2.06 µM [activator, partial curve] |  |
| CC12CCC(C(=O)Nc3ccc4c(c3)OCCO4)(OC1=O)C2(C)C (configuration not stated) | inconclusive: 20.6 µM [activator, single point] |  |
| Cc1cc(C(=O)COC(=O)c2cccc(O)c2)c(C)n1C1CC1 | inconclusive: 5.8 µM [activator, single point] |  |
| O=C(NCc1cccnc1)C(=O)Nc1nc(-c2ccccc2)cs1 | inconclusive: 11.6 µM [activator, partial curve] |  |
| CN=C1S/C(=C\c2ccc(N3CCCC3)c(F)c2)C(=O)N1C | inconclusive: 23.1 µM [activator, partial curve, poor fit] |  |
| CCc1noc(C)c1C(=O)N1CCN(S(=O)(=O)c2ccc(Br)cc2)CC1 | inconclusive: 2.06 µM [activator, full curve, poor fit] |  |
| O=C(N/N=C/C(Cl)=C\c1ccccc1)c1cccs1 | inconclusive: 7.3 µM [activator, partial curve] |  |
| COc1ccc(/C=C/C(=O)c2ccc([N+](=O)[O-])o2)cc1OC | inconclusive: 5.8 µM [activator, single point] |  |
| Cc1ccnc(NC(=O)CCNS(=O)(=O)c2ccc(C)c(C)c2)c1 | active: 1.64 µM |  |
| O=C(/C=C/c1cccc([N+](=O)[O-])c1)NCc1ccc2c(c1)OCO2 |  | inactive: 1.52% |
| CC1Cn2c(nnc2-c2ccc(F)cc2)S1 (configuration not stated) |  | inactive: -3.12% |

| SMILES | Potency | activity change, positive = activation |
| --- | --- | --- |
| COc1ccccc1CCNC(=O)c1nc(-c2cccs2)no1 | inconclusive: 11.6 µM [activator, partial curve, poor fit] |  |
| O=C(NCc1ccccc1)c1cc2ccccc2o1 | inconclusive: 17.8 µM [activator, single point] |  |
| CCCCCCOc1ccc(OCC(O)CN2C(=O)NC(C)(C)C2=O)cc1 (configuration not stated) | inconclusive: 20.6 µM [activator, single point] |  |
| COc1ccc(S(=O)(=O)N2CCOCC2)cc1NC(=O)c1cccs1 |  | inactive: 6.47% |
| O=C1NCCC/C1=N/Nc1cc(F)ccc1F | inconclusive: 13 µM [activator, partial curve, poor fit] |  |
| CN(CC(=O)O)Cc1nc2ccccc2[nH]1 | inconclusive: 20.6 µM [activator, single point] |  |
| O=C(Nc1ccc2nn(-c3ccccc3)nc2c1)c1ccc2c(c1)OCO2 |  | inactive: 8.77% |
| Cc1c(Cl)cccc1NC(=O)CCNC(=O)N1CC(=O)Nc2ccccc21 |  | inactive: -2.16% |
| Cc1ccc(Nc2nc(-c3ccccc3)c(CC(=O)O)s2)cc1 | inconclusive: 20.6 µM [activator, partial curve, poor fit] |  |
| CCOc1cc(/C=N/Nc2cccc(C(=O)O)c2)ccc1OC(=O)c1ccccc1 | inconclusive: 0.461 µM [activator, partial curve, poor fit] |  |
| C/C(=N/OCc1ccc(Br)cc1)c1ccccn1 | active: 4.61 µM |  |
| Cc1nc(SCc2ccc([N+](=O)[O-])cc2)nc2ccccc12 | inconclusive: 25.9 µM [activator, partial curve, poor fit] |  |
| Cc1cc(NC(=O)c2ccco2)ccc1-n1cnnn1 | inconclusive: 14.6 µM [activator, partial curve, poor fit] |  |
| Nc1c2c(nc3ccccc13)N(C1CCCCC1)CC2 |  | inactive: -4.26% |
| Cc1ccc(-c2nnc(N3CCN(c4ccccn4)CC3)c3ccccc23)cc1 |  | inactive: -38.8% |
| CCOC(=O)/C(=C/C1=CC(=C/N(C)C)/C(=O)O1)C(C)=O |  | inactive: 2.96% |
| O=C(O)c1cn(-c2ccccc2)nc1-c1ccncc1 |  | inactive: 0.56% |
| Cn1cc([N+](=O)[O-])c(C(=O)Nc2ccc(C3CCCCC3)cc2)n1 |  | inactive: 13.7% |
| CC(=O)C1=C(C)NC(=O)CC1c1ccc(F)cc1 (configuration not stated) |  | inactive: 2.43% |
| CCOC(=O)c1c(N)sc(C(=O)Nc2ccccc2F)c1C | inconclusive: 2.06 µM [activator, partial curve] |  |
| Oc1ccccc1C1NN=C(c2ccccc2)S1 (configuration not stated) | inconclusive: 1.46 µM [activator, full curve] |  |
| COc1cccc(C(=O)Nc2ccc3c(c2)n(C)c(=O)n3C)c1 | inconclusive: 28.2 µM [activator, single point] |  |
| CCCCOc1ccc(CSc2n[nH]c(C)n2)cc1 | active: 20.6 µM |  |
| O=C(/C=C/c1ccccc1)c1ccc2c(c1)OCCCCO2 | inconclusive: 5.8 µM [activator, partial curve] |  |

| SMILES | Potency | activity change, positive = activation |
| --- | --- | --- |
| Cc1ccccc1C(=O)NCCSc1ccccc1 | active: 7.31 µM |  |
| CCCCN(C)C(=O)c1cc2cc3ccc(OC)cc3nc2s1 | inconclusive: 0.92 µM [activator, partial curve] |  |
| Cc1ccoc1C(=O)Nc1ccc(CC(=O)O)cc1 | inconclusive: 10.3 µM [activator, partial curve, poor fit] |  |
| Cc1ccc(NC(=S)c2nc3ccccc3[nH]2)c(C)c1 | inconclusive: 2.06 µM [activator, full curve] |  |
| CC1(C)CC(=O)c2ccc(OCc3ccc([N+](=O)[O-])cc3)cc2O1 | inconclusive: 6.51 µM [activator, partial curve] |  |
| O=C(Nc1nc2ccsc2c(=O)s1)c1ccc(F)cc1Cl | active: 9.2 µM |  |
| CCc1ccc2nc(N)sc2c1 | inconclusive: 18.3 µM [activator, partial curve] |  |
| CCOC(OCC)c1ccc(/C=C\c2nccc(N)n2)cc1 | inconclusive: 18.3 µM [activator, partial curve] |  |
| COc1cccc(-c2nnc(-c3ccc(C(F)(F)F)cc3)o2)c1 | inconclusive: 16.4 µM [activator, partial curve, poor fit] |  |
| O=C(N/N=C/c1cc([N+](=O)[O-])ccc1O)c1ccc(COc2ccc3c(c2)CCC3)o1 |  | inactive: 0.428% |
| O=C(Nc1ccc(N2CCOCC2)cc1)c1cc2ccccc2o1 | inconclusive: 2.06 µM [activator, full curve] |  |
| CC(=O)C(C)Oc1ccc2c3c(c(=O)oc2c1)CCCC3 (configuration not stated) | inconclusive: 23.1 µM [activator, single point] |  |
| c1cncc(CNc2cccc(-c3nc4ccccc4[nH]3)c2)c1 | inconclusive: 3.66 µM [activator, full curve, poor fit] |  |
| CO/N=C/C(C#N)=C/c1cc(C(=O)c2ccc(F)cc2)cn1C | inconclusive: 20.6 µM [activator, partial curve, poor fit] |  |
| OC[C@H]1OC(Nc2ccc(N=Nc3ccccc3)cc2)[C@@H](O)[C@@H](O)[C@@H]1O (some centres not stated) | inconclusive: 23.1 µM [activator, partial curve, poor fit] |  |
| CCOC(=O)c1sc(NC(=O)c2ccc(Cl)s2)cc1C | active: 2.31 µM |  |
| Cc1ccc(N=Nc2c(N)n(-c3ccccc3)[nH]c2=O)cc1 | inconclusive: 23.1 µM [activator, partial curve] |  |
| O=C(O)c1cccc(N/N=C/c2ccc(OC(F)(F)F)cc2)c1 | inconclusive: 0.058 µM [activator, full curve, poor fit] |  |
| CCOC(=O)c1ccc(NC(=O)c2nn(CC)cc2Br)cc1 | inconclusive: 14.6 µM [activator, partial curve] |  |
| CC(=O)Nc1ccc(SCC(=O)c2cc(C)n(CC(F)(F)F)c2C)cc1 | inconclusive: 23.1 µM [activator, single point] |  |
| Cc1ccccc1OCC(=O)O/N=C(\N)c1ccncc1 | inconclusive: 8.2 µM [activator, partial curve, poor fit] |  |
| CCCOC(=O)c1ccc(O)cc1 | inconclusive: 29.1 µM [activator, single point] |  |
| O=C(Nc1ccc2c(c1)nc1n2CCSC1)c1ccco1 | inconclusive: 2.59 µM [activator, partial curve] |  |
| CC1CC(C)CN(CCCNC(=O)c2ccc3c(c2)NC(=O)C(N2CCCCC2)S3)C1 (configuration not stated) | inconclusive: 32.6 µM [activator, partial curve, poor fit] |  |
